# Measurements as given in PubChem BioAssay AID485360 (National Center for Advancing Translational Sciences (NCATS), 2010).
# Hit rate of the full screen: of about 230,000 compounds, about 1,500 (0.65%) were called active. The inconclusive results got no clear call from the source; some entries with a clear call stand among them for comparison. Calls come from the whole dose curve; as a rule, active = well fitted inhibition curve with a large enough effect; inconclusive = small, poorly fitted or top-dose-only effect; inactive = no such curve, though single readings can be large or run the other way. A potency beside an inconclusive call is a rough fit, not a confirmed value.
# Target: Lethal(3)malignant brain tumor-like protein 1 (Homo sapiens) (UniProt Q9Y468)
# Assay: qHTS Assay for the Inhibitors of L3MBTL1; note: nearly all actives have a fitted effect of over 60% in size
# Settings: AlphaScreen L3MBTL1–H3K9me1 peptide binding; activity, negative = inhibition: at 57.1 µM (top of the series)
# Outline: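 L3MBTL1 (50 nM) pre-complexed 30 min with biotinylated H3(1-15)K9me1 peptide (75 nM), then compounds added for 30 min at room temperature; AlphaScreen streptavidin donor/nickel chelate acceptor beads (10 ug/mL final) read after 30 min dark incubation.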
# % is set by controls: 0 for no effect and ±100 for the full control effect; potency is the fitted concentration of half-maximal effect; tags give direction and shape of the fitted curve.
SMILES,Potency,"activity, negative = inhibition"
COc1ccc(NC(=O)NCc2cccnc2)cc1OC,"inconclusive: 6.31 µM [inhibitor, single point]",
Cc1ccc(C(C)C)c(OCc2ccc(C(=O)N/N=C/c3ccc(O)c(O)c3)cc2)c1,"inconclusive: 0.1 µM [inhibitor, full curve, poor fit]",
COc1cccc(C2c3[nH]c4ccccc4c3CCN2C(=O)Cn2cncn2)c1OC (configuration not stated),"inconclusive: 22.4 µM [inhibitor, partial curve]",
NNC(=O)CNC(c1ccccc1)c1cc(Br)ccc1NC(=O)c1ccc(Br)cc1 (configuration not stated),"inconclusive: 0.126 µM [inhibitor, full curve, poor fit]",
CCn1c(C)c(/C=N/Nc2nc3ccccc3s2)c2ccccc21,"inconclusive: 17.8 µM [inhibitor, partial curve]",
O=C(Nc1ccc(O)cc1C(=O)O)c1ccc2c(c1)C(=O)N(Cc1ccco1)C2=O,,inactive: -7.03% [at 11.4 µM]
COc1ccc(N(/N=C2\Sc3ccccc3C2=O)C(C)=O)cc1,"inconclusive: 2.51 µM [inhibitor, single point]",
O=C(CCC(=O)c1ccc(F)cc1)OCc1nnc(-c2ccc([N+](=O)[O-])cc2)o1,inactive,
c1ccc(CSc2nnc(Cc3ccccc3)o2)cc1,inactive,
O=C(O)CCn1c(-c2ccccn2)nc2ccccc21,"inconclusive: 22.4 µM [inhibitor, single point]",
O=C(Nc1nc(=O)c2ccccc2s1)c1ccccc1,inactive,
O=[N+]([O-])c1ccc(O)c(/C=N/Nc2ccccn2)c1,active: 12.6 µM,
O=C(CSc1nc(=O)n2cc(Cl)ccc2n1)Nc1cccc2ccccc12,active: 25.1 µM,
COc1ccc(OCC(=O)N/N=C/c2cccn2-c2cccc(C(=O)O)c2)cc1,"inconclusive: 31.6 µM [inhibitor, single point]",
CC(C)(C)[C@H]1COC(=O)[C@@H](NC(=O)OCC2c3ccccc3-c3ccccc32)C/C=C\C[C@@H](CC(=O)N[C@@H](CO)Cc2ccccc2)C(=O)N1,"inconclusive: 0.794 µM [inhibitor, single point]",
COC(=O)C1CCN(C(=O)COC(=O)CNS(=O)(=O)c2ccc(SC)c([N+](=O)[O-])c2)CC1,inactive,
Cc1nc(C)c(C(=O)OCC(=O)NCCc2ccc(F)cc2)s1,inactive,
CC(C)NC(=O)CSc1nnc2sc3ccccc3n12,"inconclusive: 7.08 µM [inhibitor, single point]",
Cc1noc(NS(=O)(=O)c2ccc(NC(=O)c3ccoc3C)cc2)c1C,"inconclusive: 28.2 µM [inhibitor, single point]",
CCCCC(=O)NCCc1cc2ccc(OC)cc2[nH]c1=O,"inconclusive: 6.31 µM [inhibitor, single point]",
O=C(Nc1ccc([N+](=O)[O-])cc1Cl)c1cc(Cl)ccc1O,inactive,
Cc1cc(C)c(C)c(S(=O)(=O)N[C@@H](C)C(=O)OCc2cc(=O)n3cc(Br)ccc3n2)c1C,active: 12.6 µM,
Cc1cc(NCCO)nc(-n2nc(C)cc2C)n1,inactive,
O=C(COC(=O)c1ccc(F)cc1Cl)NCc1ccco1,"inconclusive: 28.2 µM [inhibitor, single point]",

SMILES,Potency,"activity, negative = inhibition"
Cn1cnnc1SCC(=O)Nc1ncc([N+](=O)[O-])s1,active: 28.2 µM,
Cc1ccc(-c2csc(Nc3ccccc3)[n+]2CCc2ccccc2)cc1,inactive,
Nn1c(SCc2ccc(Br)cc2)nnc1-c1ccccn1,"inconclusive: 8.91 µM [inhibitor, partial curve]",
COc1ccc(CNC(=S)N/N=C(/C)c2ccccc2)cc1,"inconclusive: 28.2 µM [inhibitor, partial curve]",
Cc1c(CNC(=O)C2CC2)c(-n2cccc2)n(Cc2ccccc2)c1C,"inconclusive: 0.708 µM [inhibitor, partial curve, poor fit]",
COC(=O)c1cccc(NC(=O)CSc2nc(C)cc(=O)[nH]2)c1,"inconclusive: 6.31 µM [inhibitor, single point]",
CCOC(=O)c1cc2c(ccn2C)n1CC(=O)N(Cc1ccccc1)c1ccccc1,"inconclusive: 20 µM [inhibitor, partial curve]",
COCCCN(C(=O)c1cc2c(s1)CCC2)c1c(N)n(Cc2ccccc2)c(=O)[nH]c1=O,"inconclusive: 7.08 µM [inhibitor, single point]",
CC(=O)Oc1cccc(N2C(=O)c3ccc(C(=O)O)cc3C2=O)c1,inactive,
c1ccc(OCCCn2ccnc2)cc1,inactive,
CN1N=C(C(C)(C)C)CC1=O,"inconclusive: 25.1 µM [inhibitor, single point]",
Cc1occc1C(=O)NCc1ccccn1,"inconclusive: 0.708 µM [inhibitor, single point]",
CCOc1ccc(CNc2ccc(CNc3ncn[nH]3)cc2)cc1,"inconclusive: 22.4 µM [inhibitor, partial curve, poor fit]",
CC(C)CC(=O)NC(=S)Nc1ccc(S(=O)(=O)NC(C)(C)C)cc1,inactive,
COc1ccc2nc3oc(C(=O)N4CCN(c5cccc(Cl)c5)CC4)cc3cc2c1,"inconclusive: 31.6 µM [inhibitor, single point]",
NC(N)=N/N=C/c1cccc([N+](=O)[O-])c1O,"inconclusive: 0.141 µM [inhibitor, full curve, poor fit]",
O=C(NCCCn1ccnc1)C(=O)NCC1OCCN1S(=O)(=O)c1ccc(F)cc1 (configuration not stated),"inconclusive: 28.2 µM [inhibitor, single point]",
Cc1ccccc1N1C(S)=C(C#N)C(=O)NC12CCCCC2,inactive,
O=C(NNc1c2ccccc2nc2ccccc12)c1ccc(O)cc1,"inconclusive: 15.8 µM [inhibitor, partial curve]",
Cc1ccc(NC(=O)CSc2nnc(-c3cccnc3)o2)c(C)c1,inactive,
Cn1c(SCC(=O)Nc2ccc3nc(SCC(=O)N4CCCC4)sc3c2)nnc1-c1ccccc1,"inconclusive: 25.1 µM [inhibitor, partial curve]",
CCOc1cc(CNc2ccc(O)cc2)cc(Br)c1OCc1ccccc1F,active: 15.8 µM,
Cc1ccc(C2C(C#N)=C(N)Oc3c2oc(CO)cc3=O)o1 (configuration not stated),"inconclusive: 39.8 µM [inhibitor, single point]",
Cc1ccc(-c2ccc(CCC(=O)O)n2CC(=O)O)cc1,active: 22.4 µM,

SMILES,Potency,"activity, negative = inhibition"
O=C(Cn1cnc2c(cnn2-c2ccc(F)cc2)c1=O)N1CCCc2ccccc21,"inconclusive: 8.91 µM [inhibitor, single point]",
COc1cc(/C=N/NC(=O)c2ccc(Cl)c(S(N)(=O)=O)c2)ccc1OCC(N)=O,inactive,
COc1ccc(/C=C(/C#N)C(=O)Nc2cccc(C)c2C)cc1C(=O)O,inactive,
O=C1C(=O)N(CCN2CCOCC2)C(c2ccccn2)/C1=C(/O)c1ccccc1 (configuration not stated),"inconclusive: 28.2 µM [inhibitor, single point]",
CCC(=O)Nc1ccc(N2CCC(C)CC2)cc1,inactive,
NC(=S)NNc1cccc2cccnc12,"inconclusive: 3.55 µM [inhibitor, full curve]",
Cc1nn(C)c(Cl)c1CN1CCC(CO)(CCOc2ccccc2)CC1,"inconclusive: 17.8 µM [inhibitor, partial curve]",
Cc1ccc(C(=O)OCC(=O)c2cc(C)n(CC3CCCO3)c2C)cc1 (configuration not stated),"inconclusive: 39.8 µM [inhibitor, single point]",
CCOC(=O)C1=C(C)N=C2c3ccccc3C(=O)C2C1c1ccc(Cl)cc1 (configuration not stated),"inconclusive: 20 µM [inhibitor, single point]",
Cc1cc(C)cc(C(=O)NCC(=O)OCC(=O)NC2CC2)c1,inactive,
O=C(NC(=S)NNC(=O)[C@H]1C[C@@H]1c1ccccc1)c1cccc(F)c1,inactive,
Cc1ccc2nc(NCc3ccco3)c(C=NCc3ccco3)c(=O)n2c1,"inconclusive: 35.5 µM [inhibitor, single point]",
S=C(c1ccc(-c2ccc(Cl)c(Cl)c2)o1)N1CCOCC1,"inconclusive: 39.8 µM [inhibitor, single point]",
COc1cccc(CN(C)CC(=O)Nc2cc3oc4ccccc4c3cc2OC)c1,"inconclusive: 0.794 µM [inhibitor, full curve, poor fit]",
O=[N+]([O-])c1ccccc1/C=C/C=N/n1c(-c2ccccc2F)n[nH]c1=S,"inconclusive: 22.4 µM [inhibitor, partial curve]",
CCOC(=O)N1CCC(NCCNC(=O)c2ccc(Cl)cc2)CC1,inactive,
Nc1ccc2nc(CCCCCCc3nc4ccc(N)cc4[nH]3)[nH]c2c1,"inconclusive: 7.08 µM [inhibitor, partial curve]",
O=C1OC(c2ccc(Cl)cc2)=N/C1=C\C=C\c1ccco1,"inconclusive: 35.5 µM [inhibitor, single point]",
COc1cccc(CNC(=O)CS(=O)(=O)Cc2nc(-c3ccc(C)cc3)oc2C)c1OC,"inconclusive: 3.98 µM [inhibitor, full curve]",
Cc1ccc(-n2nc(-c3ccc(N)cc3)cc2N)cc1,"inconclusive: 25.1 µM [inhibitor, single point]",
CC1=CC(=C(C#N)c2nc3ccccc3s2)C=C(C)N1CC1CCCO1 (configuration not stated),inactive,
NC(=O)C1CCN(C2=C(NS(=O)(=O)c3ccc(Cl)cc3)C(=O)c3ccccc3C2=O)CC1,"inconclusive: 8.91 µM [inhibitor, full curve, poor fit]",
Cc1ccc(-c2nc3ccc([N+](=O)[O-])cc3[nH]2)cc1,inactive,
CCOC(=O)N1CCC(N2C(=O)c3ccccc3C2=O)CC1,"inconclusive: 39.8 µM [inhibitor, single point]",
